Screen size: about 44,000 compounds; about 340 (0.77%) were called active. Roughly 5% stayed inconclusive and do not appear here. The call rests on the fitted dose curve; in most records, active means well fitted inhibition curve with a large enough effect; inconclusive means small, poorly fitted or top-dose-only effect; inactive means flat fitted curve, though single readings scatter. Some of the results follow.
Experiment: Acumen qHTS Assay for Inhibitors of the mTORC1 Signaling Pathway in MEF (Tsc2-/-, p53-/-) Cells: Sytravon; further: nearly all actives have a fitted effect of over 50% in size;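 on activity change, negative = inhibition: plate controls were DMSO for no effect and rapamycin for full effect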
Settings: phospho-rpS6 immunofluorescence/PI, 24 h; series mostly up to 38.3 µM; activity change, negative = inhibition: at the top concentration
Method in brief: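 Tsc2-/-, p53-/- MEFs (empty-vector stable line) in DMEM + 10% FBS were treated with compounds 24 h at 37 degree Celsius, fixed, and immunostained for phospho-rpS6 (Alexa-488) with propidium iodide counterstain. Laser-scanning cytometry gave % positive cells, normalized against 7.5 nM rapamycin and DMSO.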
Potency means the concentration at half of the fitted maximal effect.

Structure (SMILES)	activity change, negative = inhibition	Potency
Cc1cc(C)c2oc(-c3cc(NC(=O)Cc4ccccc4)ccc3Cl)nc2c1	inactive: -4.63%	–
COc1ccc(NC(=O)C2=C(C)Nc3c(C(=O)Nc4ccc(C)cc4)cnn3C2c2cc(OC)ccc2OC)cc1 (centres undefined)	inactive: 1.4%	–
COc1cccc(NC(=O)Cn2c(=O)n(Cc3ccccc3)c(=O)c3c2c2cc(C)ccc2n3C)c1	inactive: -3.67%	–
CN(C)c1ccc(C2CC(c3c(O)n(C4CCCCC4)c(=O)[nH]c3=O)=Nc3ccccc3S2)cc1 (centres undefined)	inactive: 6.08%	–
CCCN1CCc2nc(SCC(=O)Nc3ccc(C)c(Cl)c3)[nH]c(=O)c2C1	inactive: 5.35%	–
CCOc1ccc(C(=O)N2CCC(c3nc(-c4ccc(S(=O)(=O)N5CCCC5)cc4)no3)CC2)cc1	inactive: 3.36%	–
c1ccc(CSc2nnc(C3CCNCC3)o2)cc1	inactive: -0.4%	–
COC(=O)c1ccc(NC(=O)CCn2cccn2)cc1	inactive: 0.0221%	–
O=c1[nH]c2ccc(NCc3ccc(-c4ccccc4F)o3)cc2[nH]1	inactive: -20.1%	–
Cc1ccc(C(C)C)c(OCC(=O)Nc2cccc(-c3nc4ncccc4o3)c2)c1	inactive: 0.038%	–
CCOc1ccc(NC(=O)N(Cc2ccc(CC)cc2)Cc2cn[nH]c2-c2ccc(OC)cc2)cc1	inactive: 0.827%	–
COc1cccc(Oc2nc3c(c(=O)n(Cc4ccccc4Cl)c(=O)n3C)n2C)c1	inactive: 5.51%	–
CCOc1ccc(-c2cc3c(=O)n(Cc4nc(-c5ccc(OC)cc5OC)oc4C)ccn3n2)cc1Cl	inactive: 3.84%	–
COc1ccccc1NC(=O)c1nnn(-c2ccc(F)cc2)c1C	inactive: -0.473%	–
Cc1cc(F)ccc1NC(=O)C(C(C)C)N1Cc2ccccc2C1=O (centres undefined)	inactive: 0.525%	–
COc1ccc(CNC(=O)c2ccc3c(c2)N(Cc2ccccc2)C(=O)c2ccccc2S3=O)cc1 (centres undefined)	inactive: 0.296%	–
CCc1ccccc1OCCSc1nc(-c2cccs2)nc2cc(=O)[nH]n12	inactive: 2.4%	–
CC(=O)Nc1ccc(S(=O)(=O)NC2=NCN(C(C)C)CN2)cc1	inactive: 7.63%	–
COc1ccc(C(=O)N2CC(=O)Nc3ccc(C)cc3C2c2ccc(F)cc2)c(OC)c1 (centres undefined)	inactive: 7.93%	–
CN(CC(=O)NCc1ccccc1Cl)S(=O)(=O)c1ccc2c(c1)c(=O)n(C)c(=O)n2C	inactive: -4.91%	–
Cc1ccc(Cl)cc1N1CCN(C(=O)Cc2c(C(=O)O)c(C)cn2C)CC1	inactive: -1.3%	–
Cc1sc2ncn(CC(=O)N3CCN(c4ccccc4F)CC3)c(=O)c2c1S(=O)(=O)N1CCN(c2ncccn2)CC1	inactive: -5.49%	–
O=c1c(-c2cc(-c3ccc(Cl)cc3)nc3c2COc2ccccc2-3)coc2ccccc12	inactive: 4.68%	–
CCC(=O)N1CCc2cc(Br)cc(S(=O)(=O)CCC(=O)NCCc3ccc(C)cc3)c21	inactive: -7.88%	–

Structure (SMILES)	activity change, negative = inhibition	Potency
COc1ccc(S(=O)(=O)Nc2cccc(-c3ccc(N4CCCCCC4)nn3)c2)cc1F	inactive: 0.265%	–
CCc1ccc(CNC(=O)c2cnc(N3CCCCC3)c3ccccc23)cc1	inactive: -1.86%	–
COc1ccc(CCNC(=O)C(=O)Nc2ccc(C)c(C)c2)cc1	inactive: -0.282%	–
O=C(CN1C(=O)CC(c2ccco2)Sc2ccccc21)Nc1cccc(C(F)(F)F)c1 (centres undefined)	inactive: -10.4%	–
CC1CCN(S(=O)(=O)c2cc(C(=O)NCc3ccc(N(C)C)cc3)n(C)c2)CC1	inactive: -9.59%	–
CC(C)c1ccc(S(=O)(=O)c2cn(CC(=O)Nc3ccc(F)cc3)c3ccccc3c2=O)cc1	inactive: -3.7%	–
O=C(CSc1nc2c(c(=O)[nH]1)CCCC2)Nc1ccccc1C(F)(F)F	inactive: -0.145%	–
CCc1ccccc1NC(=O)Cn1c(=O)n(Cc2ccccc2)c(=O)c2c(C)c(C(=O)N(C)C)sc21	inactive: 1.76%	–
Cc1csc2nc(-c3cccc(NS(C)(=O)=O)c3)cn12	inactive: -1.1%	–
Cc1ccccc1CN1c2ccccc2-c2nc(SCC(=O)c3ccc(Cl)cc3)ncc2S1(=O)=O	inactive: 4.96%	–
COCCCNC(=O)CCCN1C(=O)CCn2nc(-c3cccn3C)cc21	inactive: -5.96%	–
Cc1ccc(-c2nc(C)c(CCNC(=O)C(=O)Nc3cc(C)ccc3C)s2)cc1	inactive: -2.74%	–
Cc1csc2nc(-c3ccc(NS(=O)(=O)c4cccc(F)c4)cc3)cn12	inactive: 11.3%	–
Cc1ccccc1CNC(=O)c1ccc(NC(=O)N2CCCCc3ccccc32)cc1	inactive: -0.819%	–
Cc1c(CN(C)C(=O)c2cc(-c3ccccc3)nc3ccc(Br)cc23)cnn1C	inactive: 4.83%	–
Cc1oc2ccc(NS(=O)(=O)c3ccc(F)cc3)cc2c1C(=O)O	inactive: 3.37%	–
CCCOc1ccc(C2=NC(c3ccncc3)=Nc3ccc(C)cc3N2)cc1	inactive: -10.5%	–
Cc1ccc(-c2n[nH]c3c2C(c2ccccc2Cl)N(c2ccc(C(=O)O)cc2)C3=O)cc1 (centres undefined)	inactive: 0.434%	–
Cc1ccc(S(=O)(=O)c2c(Nc3ccc(C)c(C)c3)sc(C(=O)c3ccc4c(c3)OCO4)c2N)cc1	inactive: 0.203%	–
CSc1ncc(Cl)c(C(=O)Nc2c(C(=O)Nc3cccc(C)c3)oc3ccccc23)n1	inactive: 3.97%	–
Cc1ccccc1-c1noc(-c2ccc(N3CCC(C)CC3)c([N+](=O)[O-])c2)n1	inactive: 3.3%	–
O=C(CN1CCN(Cc2ccc(F)cc2Cl)C1=O)NCCc1ccc(Cl)cc1	inactive: 1.53%	–
CC(C)c1nc2ccc(C(=O)NCCCN3CCN(c4ccccc4)CC3)cc2o1	inactive: 0.187%	–
O=C1CN(C(=O)c2ccc(S(=O)(=O)N3CCCC3)cc2)C(c2ccccc2)c2cc(Cl)ccc2N1 (centres undefined)	inactive: 4.8%	–

Structure (SMILES)	activity change, negative = inhibition	Potency
COc1ccc(OC)c(NC(=O)N2CC(C)Oc3ccc(C)cc32)c1 (centres undefined)	inactive: -0.18%	–
Cc1ccc(C(=O)c2cn(CC(=O)NCc3ccccc3)c3nc(C)ccc3c2=O)cc1	inactive: 5.61%	–
Cc1ccc(O)c(Nc2nc3ccccc3c3nncn23)c1	inactive: -15.9%	–
Cc1cc(C)n(CC(=O)Nc2cc(F)ccc2F)c(=O)c1C#N	inactive: 4.1%	–
COc1ccc(Cl)cc1NC(=O)CSc1nnc2[nH]c(=O)cc(C)n12	inactive: 0.943%	–
CCOc1ccc(-c2nc(C(N)=O)c3c(n2)n(-c2ccc4c(c2)OCO4)c(=O)n3CC)cc1	inactive: -8.98%	–
CC1=C(C(N)=O)C(c2ccccc2F)n2nc(-c3ccc(Cl)cc3)nc2N1 (centres undefined)	inactive: 1.97%	–
COC(=O)c1cc(S(=O)(=O)N2CCN(c3cc(Cl)ccc3C)CC2)c[nH]1	inactive: -0.983%	–
O=S(=O)(NCC(c1ccco1)N1CCOCC1)c1ccc(F)cc1 (centres undefined)	inactive: 0.984%	–
Cc1cc(C)c2oc(C(=O)Nc3c(C(=O)c4ccccc4)oc4ccccc34)cc(=O)c2c1	inactive: 4.47%	–
Cc1ccc(CNC(=O)Cn2cc3c(n2)-c2c(oc(C(=O)N4CCOCC4)c2C)CC3)cc1	inactive: -5.86%	–
COc1ccccc1CNc1ncnc2c1c(-c1ccccc1)cn2-c1ccc(Br)cc1	inactive: 5.72%	–
COc1cc2c(=O)c(C(=O)c3ccc(F)cc3)cn(Cc3cccc(F)c3)c2cc1OC	inactive: -14.5%	–
Cc1ccc(C(=O)NCCC(C)C)cc1NC(=O)c1nsc2ccccc12	inactive: 1.46%	–
CCN(CC)c1ccc(NC(=O)Cn2c3ncccc3c(=O)n2-c2ccccc2)c(C)c1	inactive: -1.41%	–
CN(CCCNC(=O)Cn1ncc2c([nH]c3ccccc32)c1=O)Cc1ccccc1	inactive: 1.08%	–
Cc1ccccc1CNC(=O)C(=O)NCC(c1ccc2c(c1)OCO2)N1CCOCC1 (centres undefined)	inactive: -13.2%	–
Cc1ccc2c(c1)-c1c(cnn1CC(=O)N1CCN(c3cc(C)ccc3C)CC1)CO2	inactive: -9.19%	–
Cc1ccccc1S(=O)(=O)Cc1ccc(C(=O)NCCc2ccccc2)o1	inactive: -20.2%	–
CC(C)N1CCc2c(sc(NC(=O)c3ccc(S(=O)(=O)N(C)C4CCCCC4)cc3)c2C(N)=O)C1	inactive: -0.0975%	–
O=C(NCc1ccc(Cl)cc1)c1ccc(CNS(=O)(=O)c2ccc(F)cc2)cc1	inactive: -5.05%	–
COCCc1nn2c(=O)cc(COC(=O)c3ccco3)nc2s1	inactive: -5.51%	–
CCC(Sc1nc2cc(OC)c(OC)cc2c(=O)n1Cc1ccc(OC)cc1)C(=O)NCCOC (centres undefined)	inactive: -6.82%	–
CC(=O)c1ccc(NC(=O)c2cc(S(=O)(=O)N3CCOCC3)ccc2C)cc1	inactive: 1.52%	–

Structure (SMILES)	activity change, negative = inhibition	Potency
CC(C)(C)c1ccc(C(=O)Nc2ccc(OCc3cc(=O)n4ccsc4n3)cc2)cc1	inactive: -15%	–
COc1ccc(CCNC(=O)c2ccc(Cn3c(=O)c4ccccc4n(Cc4ccc(F)cc4Cl)c3=O)cc2)cc1OC	inactive: -4.31%	–
Cc1cc(N2CCN(c3ccccc3)CC2)n2cnnc2n1	inactive: -9.55%	–
Cc1nc(-c2ccc(F)cc2)sc1CCNC(=O)c1ccc(OC(C)C)cc1	inactive: -3%	–
CCN1CCN(C(=O)c2ccc3c(c2)N(Cc2ccccc2)C(=O)c2ccccc2S3(=O)=O)CC1	inactive: -6.7%	–
CCOc1ccc(-c2cn3c(n2)sc2cc(C(=O)N4CCCC(C)C4)ccc23)cc1 (centres undefined)	inactive: 1.34%	–
Cc1nc(N2CCOCC2)c2c(C(=O)N(C)c3ccccc3)c(C)oc2n1	inactive: 4.6%	–
COc1ccccc1CNC(=O)C1CCN(C2=NS(=O)(=O)C(c3ccc(C)c(C)c3)=C2C)CC1	inactive: -10.8%	–
Cc1cc(C)cc(OCC(=O)N(Cc2ccc(Cl)cc2)C2CCS(=O)(=O)C2)c1 (centres undefined)	inactive: 8.31%	–
COc1cc(CSc2ncc(CO)n2Cc2ccc(C)cc2)cc(OC)c1	inactive: -4.36%	–
COc1ccc(CNC(=O)CCCN2C(=O)CCn3nc(-c4cn(C)c5ccccc45)cc32)cc1	inactive: -0.331%	–
Cc1c(Cl)cccc1NC(=O)CSc1nc(=O)[nH]c2c1CCCC2	inactive: -10.3%	–
O=C(NCCC1=CCCCC1)C1CCN(C(=O)N2CCOc3ccccc32)CC1	inactive: 7.2%	–
COc1ccc(OC)c(NC(=O)Cn2ncc3c2-c2ccccc2OC3)c1	inactive: -7.92%	–
O=C(NCCc1ccc(Cl)cc1)C1(c2cccs2)CCOCC1	inactive: -1.28%	–
Cc1ccc(-n2c(=O)c3cccnc3n2CC(=O)Nc2ccc(C)cc2Cl)cc1	inactive: -3.22%	–
O=C1CN(C(=O)c2ccc(S(=O)(=O)N3CCCCC3)cc2)C(c2ccc(F)cc2)c2cc(Cl)ccc2N1 (centres undefined)	inactive: -6.21%	–
Cc1cccc(-c2nc(CS(=O)CC(=O)NCc3ccc(Cl)cc3)c(C)o2)c1 (centres undefined)	inactive: 1.59%	–
O=C(NCCc1ccccc1)c1ccc(CSc2nc3cccnc3n2Cc2ccccc2F)cc1	inactive: -1.77%	–
CCN(CC)CCn1c(=N)n(CCOc2ccccc2Cl)c2ccccc21	–	active: 5.85 µM
COc1ccc(C2=C(C)C(=O)N(Cc3ccc(C(=O)Nc4ccc(F)cc4C)cc3)S2(=O)=O)cc1	inactive: -1.56%	–
COc1cccc(-c2cn3c(n2)sc2cc(C(=O)NCc4ccccc4F)ccc23)c1	inactive: -1.68%	–
